Source: the RNAGym collection of RNA variant scans (doi:10.7554/elife.90254)
Read counts are not given, so values of variants with three or more changes are uncertain.

B1: LINE1-full (parent)
chain: UACGUAGGUGGUUUUCCCCUGAUAGUGCUAAGGGGGCCUGGAAGUUUGGACUGGGCAGAGCUCAACACAGCGUGGCAAAGUGGCUGUGGCUAGACUGCCUCUCUGGAUUCCUCGUCACUCAGCAGGGCAUCUCUGAGAGAAAUGCC

Variants of: B1
Assay: self-cleavage, relative activity (ratio to wild type); higher = more cleavage; in vitro, sequencing; the parent is a self-cleaving ribozyme
Work on UACGUAGGUGGUUUUCCCCUGAUAGUGCUAAGGCGGCCUGGAAGUUUGGACUGGGCAGAGCUCAACUCAGCGUGGCAAAGUGGCUGUGGCUAGACUGCCUCUCUGGAUUCCUCGUCACCCAGCAGGGCAUCCCUGAGAGAAAUGCC [G34C A67U U119C U132C] yielded a self-cleavage of 0.18.
With UACGUAGGUGGUUUACCCCUGACAGUGCUAAGGGGGCCUGGAAGUUUGGACUGGGCAGAGCUCAACACAGCGUGGCAAAGUGGCUGUGGCUAGACUGCCUCUCUGGAUUCCCCGUCACUCAGCAGGGCAUCUCUGAGAGAAAUGCC [U15A U23C U112C] the self-cleavage was 0.69.
For UACGUAGGUGGUUUUCCCCUGAUAGUGCUAGGGGAGCCUGGAAGUUUGGACUGGGCAGAGCUCAACACGGCGUGGCAAAGUGGCUGUGGCUAGACUGCCUCUCUGGAUUCCUCGUCACUCAGCUGGGCAUCUCUGAGAGAAAUGCC [A31G G35A A69G A124U], the self-cleavage was 0.16.
Work on UACGUAGGUGGUUUUCCCCCGAUAGUGCUAAGGGGGCCUGGUAGUUUGGACUGGGCAGAGCUCUACACAGCGUGGCAAAGUGGCUGUGGCUAGACUGCCUCUCUGGAUUCCUCGUCACUCAGCAGGGCAUCUCUGAGAGAAAUGCC [U20C A42U A64U] yielded a self-cleavage of 0.37.
Work on UACGUAGGUGGUUUUCCCCUGGUAGUGCUAAGGGGGCCUGGAAGUUUGGACUGGGCAGAGCUCAACACAGCGUGGCAUAGUGGCUGUGGCUAGACUGCCUCUCUGGAUUCCUCGUCACUCAGCGGGGCAUCUCUGAGAGAGAUGCC [A22G A78U A124G A141G] yielded a self-cleavage of 1.87.
UACGUAGGUGGCUUUCCCCUGAUAGUGCUAAGGGGGCCUGGAAGUUUGGACUGGGCAGAGCUCGACACAGCGUGGCAAAGUGGCUGUGGCUAGACUGCCUCCCUGGAUACCUCGACACUCAGCAGGGCAUCUCUGAGAGAAAUGCC [U12C A64G U102C U109A U115A] showed a self-cleavage of 0.3.
With UACGUAGGUGGUUUUCCCCUGAUAGUGCUAAGGGGGCUUGGAAGUUUGGGCUGGGCAGAGCUCAACACAGCGUGGCAAAGUGGCUGUGGCUAGACUGCCUCUCUGGAUUCCUCGACACUCGGCUGGGCAUCUCUGAGAGAAAUGCC [C38U A50G U115A A121G A124U] the self-cleavage was 0.73.
UACGUAGGUGGUUUUCCCCUGAUAGUGCUAAGGAGGCCUGGAAGCUUGGACUGGGCAGAGCUCAACACAGCGUAGCAAAGAGGCUGUGGCUAGACUGCCGCUCUGGAUUCCUCGUCACUCAGCAGGGCAUCUCAGAGAGAAAUGCC [G34A U45C G74A U81A U100G U134A] showed a self-cleavage of 2.02.
UACGUAGGUGGUCUUCCCCGGAUAGUGCUAAGGGGGCCUGGAAGUUAGGACUGGGCUGAGCACAACACAGCGUGGCAAAGUGGCUGCGGCUAGAUUGCCUCUCUGGAUUCCUCGUCACUCAGCAGGGCAUCUCUGAGAGAAAUGCC [U13C U20G U47A A57U U62A U87C C95U] gave a self-cleavage of 0.
UACCUAGGUGGUUUUCCCCUGAUAGUGCUAAGGGGGCCUGGAAGUUUGGACUGGGCAGAGCUCAACACAGCGUGGCAGAGUGGCUGUGGCUAGACUGCCUCUCUGGAUUCCUUGUCACUCAGCAGGGCAUCUCUGAGAGAAAUGCC [G4C A78G C113U] gave a self-cleavage of 0.05.
Variant UACGUAGGUGGUUUUCCCCUGAUAGUGCUAAGGGGGCCUGGAAGUUUGGACUGGGCAGAGCUCAACACUGCGUGGCAAAGUGGUUGUGGCUAGACUGCCUCUCUGGAUUCCUCGUCACUCAGCAGGGCAUCUCUGAGAGGAAUGCC [A69U C84U A140G] has a self-cleavage of 0.01.
Variant UACGUAGGUGGUUUUCCCCUGAUAGUGCUAAGGGGGCCUGGAAGUUUGGACUGGGCAGAGCUCGUCACAGCGUGGCAAGGUGGCUGUGGCUAGACUGCCUCUCUGGAUUCCUCGUCACUCAGCAGGGCAUCUCUGAGAGAAAUGCC [A64G A65U A79G] has a self-cleavage of 0.08.
For UACGUAGGUGGUUUUCCCCUGAUAGUGCUAAGGGGGCCUGGAAGUUUGGACUGUGCAGAGCUCAACACAGCGUGGCGAAGUGGCUGUGGCUAAACUGCCUCUCUGGAUUCCUCGUCACUCAGCAGGGCAUCUCUGAGAGAAAUGCC [G54U A77G G93A], the self-cleavage was 0.
UACGUAGGUGGUUUUCCCCUGAUAGUGCUAAGGGGGCCUGGAAGUUUGGACUGGGCAGAGCUCAACACAGCGUGGCAAAGUGGCUGUGGCUAGACUGCCCCUCUGGAUUCCUCGUCACUCAGCAGGGCAUCUCUGAGCGAAAAGCC [U100C A138C U143A] showed a self-cleavage of 1.74.
Work on UACGUAGGUGGUUCUCCCCUGAUAGUGCUAAGGGGGCCUGGAAGUUUGGACUGGGCAGAGCUCAACACAGCGUGGCAAAGUGGCUGUGGCUAGUCUGCCUCUCUGGAUUCCUCGUCACUCAGCGGGGCAUCUCUGAGAGAAAGGCC [U14C A94U A124G U143G] yielded a self-cleavage of 0.22.
For UACGUAGGUGGUUUUCCCCUGAUAGUGCUAAGGGGGCCUGGAAGUUUGGACUGGGCAGAGCUCAACACAGCGUGGCCAAGUGGCUGUGGCUAGACUGCCUCUCUGGAUUCCUCGUCACUCAGCAGGGCAUCUCUAAGAGAGACGCC [A77C G135A A141G U143C], the self-cleavage was 1.11.
In the case of UACGUAGGUGGUUUUCCCCUGAUAGUGCUAAAGGGGCCUGGAAGUUUGGACUGGGCAGAGCUCAACACAGCGUGGCAAAGUGGCUGAGGCUAGACUGCCUCUCAGGAUUCCACGUCACUCAGCAGGGCAUCUCUGAGAGAAAUGCC [G32A U87A U104A U112A], the self-cleavage is reported as 0.08.
Work on UACGUAGGUGGUUUUCCCCUGAUAGUGCUAAGGGGGCCUGGAAGUUUGGACUGGGCAGAGCUCAGCACAGCGAGGCAAAGUGGCUGUGGCUAGACUGCCUCUCCGGAUUCCUCGUCACUCAGCAGGGCAUCUCUGAGAGAAGUGCC [A65G U73A U104C A142G] yielded a self-cleavage of 0.
In the case of UACGUAGGUGGUUUUCCCCUGAUAGUGCUAAGGGGGCCUGGGAGUUUGGACUGGGCAGAGCUCAACACAGCGUGGCAAAGUGGCUGUGGCUGGGCUGCCUCUCUGGAUUCCUCGUCACUCAGCAGGGCAUCUCUGAGAGAAAUGCC [A42G A92G A94G], the self-cleavage is reported as 0.31.
UACGUAGGUGGUUUUCCCCUGAUAGUGCUAAGGGGGCCUGGAAGUUUGGACUGGGCAGAGCCCAACACAGCGUGGCAAAGUGGCUGUGGCUAGACUGCCUCUCAGGAUUCCUCGUCACCCAGCAGGGCAUCUCUGAGAGAAAUGCC [U62C U104A U119C] showed a self-cleavage of 0.
Variant UACGCAGGUGGUUUUCCCCUGAUAGUGCUAAGGGGGCCUGGAAGUUUGGACUGGGCGGAGCUCAACACAGCGUGGCAAAGUGGCAGUGGCUAGACUGCCUCUCUGGAUUCCUCGUCACUCAGCAGGGCAUCUCUGAGAGAAAUGCC [U5C A57G U85A] has a self-cleavage of 0.14.
UACGUAGGUGGUUUUCCCCUGAUAGUGCUAAGGGGGCCUGGAAGUUUGGACUGGGCAGAGCUCAACACAGCGUGGCAAGGUGGCUAUGGCUAGGCUGCCCCUCUGGAUUCCUCGUCACUCAGCAGGGCGUCUCUGAGAGAAGUGCC [A79G G86A A94G U100C A129G A142G] gave a self-cleavage of 0.3.
UACGCAGGUGGUUUUCCCCUGAUAGUGCUAAGGGGGCCUGGAAGUUUGGACUGGGCAGGGCUCAACACAGCGUGGCAAAGUGGCUGUGGCUAGACUGCCUCUCUGGAUUCCUCGUCACUCAGCAGGGCAUCUCUGAGAGGAAUGCC [U5C A59G A140G] gave a self-cleavage of 0.
Variant UACGUAGGUGGUCUUCCCCUGAUAGUGCUAAGGGGGCCUGGAAGUUUGGACUGGGCAGAGCUCAACACAGCGUGGCAAAGUGGCUGUGGCUAGACUGCCUCUCUGGAUUCCUCGUCACUCAGCAGGGCAUCUCCGGGAGAAAUGCC [U13C U134C A136G] has a self-cleavage of 1.48.
With UACGCAGGUGGUUUCCCCCUGAUAGUGCUAAGGGGGACUGGAAGUUUGGACUGGGCAGAGCUCAACACAGCGUGGCAAAGUGGCAGUGGCUAGACUGCCUCUCUGGAUUCCCCGUCACUCAGCAGGGCAUCUCUGAGAGAAAUGCC [U5C U15C C37A U85A U112C] the self-cleavage was 0.09.
Variant UACGUAGGUGGUUUUCCCCUGAUAGUGCUAAGGGGGCCUGGAAGUUUGGACUGGGCAGAGCUCGACACAGCGUGGCAAAGUGGCAGAGGCUAGACUGCCUCUCUGGAUUCCUCGUCACUCAGCAGGGCAUCUCUGAGAGAAAUGCC [A64G U85A U87A] has a self-cleavage of 0.03.
UACGUAGGUGGUUUCCCCCUGAUAGUGCUAAGGGGGCCUGGAAGUUUGGACUGGGCAGAGCACAACACAGCGUGGCAAAGUGGCUGUGGCUAGACUGCCUCUCUGGGUUCCUCGUCACUCAGCAGGGCAUCUCUGAGAGGAAUGCC [U15C U62A A107G A140G] showed a self-cleavage of 0.
Work on UACGUAGGUGGUUUUCCCCUGAUAGUGCUAAGGGGGCCUGGAAGUUUGGACUGGGCAGAGCUCAACACAGCGUGGCAAAGUGGCUAUGGCUAGACUGCCUCUCUGGAUUCCUCGUCACUCAGCGGGGCAUCUCUGGGAGAAAUGCC [G86A A124G A136G] yielded a self-cleavage of 0.06.
Work on UACGUAGGUGGUUUUCCCCUGAUAGUGCUAAGGUGACCUGGAAGUUUGGACUGGGCAGAGCUCAACACAGCGUGGCAAAGUGGCUGUGGCUAGACUGCCUCUCUGGAUUCCUCGUCACUCAGCAGGGCAUCUCUGAGCGAAAUGCC [G34U G36A A138C] yielded a self-cleavage of 0.96.
Variant UACGUAGGUGGUUUUCCCCUGAUAGUGCUAAGGGGGCCCGGAAGUUCGGACUGGGCAGAGCUCAACACAGCGUGGCAAAGUGGCUGUGGCUAGACUGCCUCUCUGGAUUCCUCGUCACUCAGCAGGGCUUCUCUGAGAGAAAUGCC [U39C U47C A129U] has a self-cleavage of 1.67.
UACGUAGGUGGUUUUCUCCUGAUAGUGCUAAAGGGGCCUGGAAGUUUGGACUGGGCAGAGCUCAACACAGCGUGGCAGAGUGGCUGUGGCUAGACUGCCUCUCUGGAUUCCUCGUCACUCAGCAGGGCAUCUCUGAGGGAGAUGCC [C17U G32A A78G A138G A141G] showed a self-cleavage of 0.8.
In the case of UACGUAGGUGGUUUUCCCCUGAUAGUGCUAAGGUGGCCAGGAAGUUUGGACUGGGCAGAGCUCAGCACAGCGUGGCAAAGUGGCUGUGGCUAGACUGCCUCUCUGGAUUCCUCGUCACUCAGCAGGGCAUCUCUGAGAGAAAUGCC [G34U U39A A65G], the self-cleavage is reported as 0.03.
Work on UACGUAGGUGGUUCUCCCCUGAUAGUGCUAAGGGGGCCUGGAAGUUUGGACUGGGCAGAGCUCAACACAGCGUGGCAAAGUGGCUGUGGCUAGACUGCCCCUCUGGGUUCCUCGUCACUCAGCAGGGCAUCUCUGAGAGAAAUGCC [U14C U100C A107G] yielded a self-cleavage of 1.28.
UACGUAGGUGGUUUUCCCCUGAUAGUGCUAAGGGGGCCUGGAAGUUUGGACUGGGCAGAGCUCAACACAGCGUGGCAAAGUGGCUGUGGCUAGACUGCCUCUCUGGAUUCCUCGUCGCUCUGCAGGGCAUCUCUGAGAGAAGUGCC [A117G A121U A142G] gave a self-cleavage of 2.48.
UACGUAGGUGGUUUUCCCCUGGUAGUGCUAAGGGGGCCUGGAAGUUUGGACGGGGCAGAGCUCAACACAGCGUGGCAAAGUGGCUGUGGCUAGACUGCCUCUCCGGAUUCCUCGUCACUCAGCAGGGCAUCUCUGAGAGAAAUGCC [A22G U52G U104C] gave a self-cleavage of 2.3.
For UACGUAGGUGGUUUUCCCCCGAUAGUGCUAAGGGGGCCUGGAAGUUUGGACUGGGCAGAGCUCAACACAGCGUGGCAAAGAGGCUGUGGCUAGACUGCCUCUCUGGAUUCCUCGUCACACAGCAGGGCAUCUCUGAGAGAAAUGCC [U20C U81A U119A], the self-cleavage was 2.27.
Variant UACGUAGGUGGUCUUCCCCUGAUAGUGCUAAGGGGGCCUGGAAGUUUGUACUGGGCAGAGCUCAACACAGCGUGGCAAAGUGGCUGUGGCUAGACUGCUUCUCUGGAUUCCUCGUCACUCAGCAGGGCAUCUCUGAGAGAAAUGCC [U13C G49U C99U] has a self-cleavage of 0.35.
UACGUAGGUGGUUUUCCCCUGAUAGUGCUAAGGGGGCCUGGAAGUUUGGACUGGGCAGAGCACAACACAGCGAGGCAAAGAGGCUGUGGCUAGACUGCCUCUCUGGAUUCCUCGUCACUCAGCAGGGCAUCUCUGAGAGAAAUGCC [U62A U73A U81A] gave a self-cleavage of 0.04.
UACGUAGGUGGUUUUCCCCUGAUAGUGCUAAGGGGGCCUGGAGGUUUGGACUGGGCAGAGCUCAACACAGCGUGGCGAAGUGGCUGUGGCUAGACUGCCUCUCUGGAUUCCUCGUCACUCAGCAGGGCAUCUCUGAGAGAAAAGCC [A43G A77G U143A] showed a self-cleavage of 0.
